In the RNAGym collection of RNA variant scans (doi:10.7554/elife.90254):
Read counts are not given, so values of variants with three or more changes are uncertain.

B1: LINE1-mini (parent)
chain: GGCAGAGCUCAACACAGCGUGGCAAAGUGGCUGUGGCUAGACUGCC

Variants of: B1
Experiment: self-cleavage, relative activity (ratio to wild type); higher = more cleavage; in vitro, sequencing; the parent is a self-cleaving ribozyme

Variant	self-cleavage
C3A G7C U20A A25U G36C C45A	0.03
C3A A14G G17U G22C C31G G44A	0.02
G2U G30A U34G U43A G44A	0.03
C3A A4G A26U C31G	0.07
C3A G5U C8U A12U U43C	0.06
C3A G7U A12G A25U G29U G33U	0.13
G2U U9A C15G	0.01
G2U C15U C18G G21U C23G	0.02
C3A G5C C42A	0.05
C3A A39U C45A	0.21
C3A A11C C13G G21C A41U C42U	0.01
G2U G36U C42G C45A	0.01
G2U U9C A11G C23A	0.01
C3A A6C C18G G40A G44A	0.06
C3A A4C G7C U32G G36U	0.03
G2U C18A A41G	0
C3A A4U U9G C42U C46U	0.09
C3A G7U G27U G35A	0.21
C3A C23A G30C C45A	0.79
C3A C13G G36U A39C	0.63
C3A C23U A24G U28C G33A G44U	0.52
C3A A4U C8G U9C A12C C15G G35A G40C	0
C3A G5U A26U	0.48
G2U G7C G30A	0.06

Variant	self-cleavage
C3A A6U C18A C45G	0.18
C3A A14U U20G C31A U43C	0.05
C3A A12G C18G C42G	0.02
C3A C15A G35A C42G G44U	0.01
G2U G17U C42A	0.01
C3A C13A C15U	0.44
C3A A11C G44A	0.06
C3A A16C G19U U34C	0.02
G2U G5U A16C G27A U32G G36C	0.04
G2U G19A U32A	0.01
G2U G19A U32G	0.01
G2U G5U U9G G40A	0
C3A A11G G19U A39G G44A	0.03
G2U C15A C23U	0.13
G2U U9G A14G C45A C46A	0.01
C3A G5C G17U C18U	0.02
G2U U28A G40C	0.1
G2U U28G C31G C37U C45G	0.01
C3A C8A C23G G36U	0.4
G2U U32C G33C	0.03
G2U G17U G19C G27U G40A C42G G44C	0.05
C3A G5A A12U A16U G21U A24C G40A	0.09
C3A A4C C46G	1.14
G2U G5A A12C A14C A25G U28A	0.01

Variant	self-cleavage
G2U C18G A25C	0.06
G2U C15U G17U C18U U20C	0.03
C3A C8U A24U G33A	0.49
C3A A14U A41U	0.12
G2U G7U G17U G19C	0.03
G2U G5C A11C A24G C37A C42U	0
G2U U34A U43C	0.03
G2U G27A C46G	0.08
G2U G5A G29A C31A G35C G36A U38C C45A	0.02
G2U G19A A39C U43A	0.04
G2U G17U C18A A24U U32C	0.04
C3A A6U U34C G40U G44A	0.08
G2U C13A G17U U20G G21A G44A	0.02
C3A A6U G30U G33A G36U C46G	0.1
C3A A12G C37U C45U	0.09
C3A A4C G29U G44C	0.13
G2U C18G C23A U38C	0.01
C3A A25G G27U G33A C42A	0.02
G2U C13U G44A	0.01
C3A A11U G30A	0.08
C3A G7C C13G C15U U32G U34A C45A	0.03
G2U G5U A25U C37U	0.02
G2U C15A G19C	0.02
G2U U32G U43A	0.05

Variant	self-cleavage
G2U C37U A39C G44A	0.01
C3A A12U A14C G22U G27A U32G G40C	0.11
G2U G27U G30U C37U G40U C45A	0.01
C3A G5A C23A G29C	0.05
G2U G21A C23G	0.05
G2U U9G G17U G29A	0
C3A A4U G17C A25G A41G C42G	0.06
C3A G5A G7U C8G C13G G17A G40U	0.76
C3A A4U A6U A16C G21A G33U	0.13
C3A C10A G27C	0.03
G2U G7U U9G	0.07
G2U C23A G29C U32G C46A	0.11
C3A C10A G29U	0.04
C3A A16C A24G U32A C37G	0.1
C3A C18U G29U C37A G40C	0.24
G2U C15U C45U	0.02
C3A G5U C18A G19C U28G G30C U38G C42A	0
C3A A12G C23A	0.65
G2U G7C A14U G17A	0.12
C3A C15A C18A A26G G44U	0.07
C3A A4G G19U U20G C46U	0.63
C3A A12C C18A G29U C46U	0.16
C3A A16U G35A	0.12
C3A A24C A25C	0.15

Variant	self-cleavage
C3A C18U G35C	0.11
C3A C42U C46A	0.04
C3A A6C G19C G30U G33U	0.15
C3A C10G G22U G40U	0.02
G2U C18U C45U	0.02
C3A C23A G35A	0.12
G2U U9C U32G	0.01
C3A A4U C13A C18G	0.2
G2U G21A C37A	0.07
C3A A24U A26G	0.33
G2U G17A A39U	0.02
G2U G19C G29U G30U U34A A39G	0.01
C3A G7A C45G	0.45
G2U G5A G22C C31U	0.02
G2U C23A C37A U38A	0.03
C3A C10U G27U U32G G36A C42G	0.07
G2U G7A A26U U32C	0.07
G2U G5U A14C C15U	0.01
C3A C15G C45G	0.08
C3A C18G U38C	0.04
C3A C8U A16U A24U	0.94
G2U G36U U38C	0
C3A A4U A12C G19C C23A C31G U34C A39C	0
C3A C10U A14C G33A A39U	0.02

Variant	self-cleavage
C3A C15A G30U	0.31
C3A A6G C10U G17U G29U	0.1
C3A A12G A24G G30C C42G U43G	0.09
C3A A4C G5A G35A	0.12
C3A C8A U9A A14U G17A G27U	0.48
C3A A24C G40A	0.09
C3A C23G C37U C42A	0.25
G2U C18U A39U G44C	0.01
G2U G19C U32A A41U	0.03
C3A C42A U43A	0.1
G2U U9G A11C C42A	0
G2U G22C C31A G36C G40A G44A	0.01
G2U G29A G30A C31G U38A	0
G2U G21C U32C	0.02
G2U G22A A26C U28G U34C G40U	0.01
G2U G5U C31A C46A	0.02
C3A C15A G40U U43A G44A	0.16
G2U G7U C10G C15G A26U	0.01
C3A C13G A25U U43A G44A	0.06
C3A A12C G17U C18G U28G A39U	0
C3A C8A A14U C31U	0.47
C3A A11G C46A	0.01
C3A A14G G27U	0.38
C3A G7A G40C	0.16

Variant	self-cleavage
C3A C10A C37U	0.03
G2U G5A G35A	0.02
C3A A4G A26G	0.05
C3A A4U C23A U32G G40U C46G	0.06
G2U G27U G30U	0.09
C3A C13A G36A	2.9
C3A C8G G21C C31A G44A	0.07
C3A C37A G40U	0.35
C3A G7C A11G	0.07
G2U C23A U32C	0.03
G2U C18A G44A	0.01
G2U U9C G22U	0.01
C3A A12G C23U G33U A41G	0.01
G2U C15A G22A	0
G2U G5A C8G C13U G21U C42A C45G	0.03
C3A C13G C18A A25G	0.13
C3A A11U C13A U20A	0.06
C3A C10G G21U U28A	0.09
G2U G17U G21C A26G C42A	0.08
G2U G17A G21U G27U U38A	0.01
G2U U9C C15U	0
G2U G21C A25C G29A G30A C31U C37A	0.02
C3A C10A C37U C45U	0.01
